# According to PubChem BioAssay (Tox21):
# Where “and” joins values, the source holds several entries; their conditions need not be identical. Identical values can stand only once. Some compounds were tested as several samples or in several runs, with calls that do not always agree. Calls of active or inactive are those of the source. Unless noted, calls follow the shape of the dose curve; as a rule, active = well fitted curve in the direction sought with a large enough effect in the repeat runs; inconclusive = weak or mixed curves; inactive = no such curve, though single readings can be large; an effect the other way counts as inactive or inconclusive.
# Key:
# [1] = qHTS assay to identify small molecule antagonists of the estrogen receptor alpha (ER-alpha) signaling pathway - cell viability counter screen (AID 743074; calls by dose curve;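 also: HEK293 cells carrying ER-alpha-UAS-bla reporter stimulated with 17beta-estradiol; nearly all actives have a fitted effect of over 45% in size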)
# [2] = biological target: Estrogen receptor (Homo sapiens) (UniProt P03372); assay: qHTS assay to identify small molecule agonists of the estrogen receptor alpha (ER-alpha) signaling pathway (AID 743075; calls by dose curve;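 also: HEK293 GripTite cells with ER-alpha and UAS-driven beta-lactamase reporter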)
# UniProt P03372, sequence (P03372 whole entry, looked up): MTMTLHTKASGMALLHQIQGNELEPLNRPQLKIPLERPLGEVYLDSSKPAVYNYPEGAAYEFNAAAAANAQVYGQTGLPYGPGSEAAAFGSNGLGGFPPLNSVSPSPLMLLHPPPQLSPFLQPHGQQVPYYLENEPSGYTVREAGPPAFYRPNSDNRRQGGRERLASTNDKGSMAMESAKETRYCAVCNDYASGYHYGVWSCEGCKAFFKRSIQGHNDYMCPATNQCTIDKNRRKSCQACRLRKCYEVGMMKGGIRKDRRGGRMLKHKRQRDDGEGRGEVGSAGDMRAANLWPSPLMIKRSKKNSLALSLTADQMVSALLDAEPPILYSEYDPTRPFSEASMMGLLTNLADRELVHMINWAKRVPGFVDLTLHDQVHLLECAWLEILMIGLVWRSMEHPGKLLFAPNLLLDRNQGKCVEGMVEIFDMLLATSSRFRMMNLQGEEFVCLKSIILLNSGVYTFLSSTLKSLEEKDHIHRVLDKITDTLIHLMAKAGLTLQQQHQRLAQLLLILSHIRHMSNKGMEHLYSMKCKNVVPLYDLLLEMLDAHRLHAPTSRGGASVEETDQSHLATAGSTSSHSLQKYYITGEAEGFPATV
# [3] = qHTS assay to identify small molecule antagonists of the estrogen receptor alpha (ER-alpha) signaling pathway using the BG1 cell line - cell viability counter screen (AID 743081); conditions: BG1Luc4E2 viability, CellTiter-Fluor, 22 h; activity change, negative = cytotoxicity: at 70.3 µM (top of the series);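 also: compound given together with 17beta-estradiol as the ER stimulus; nearly all actives have a fitted effect of over 45% in size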
# [4] = qHTS assay to identify aromatase inhibitors - cell viability counter screen (AID 743084); conditions: MCF-7 aro ERE viability, CellTiter-Fluor, 24 h; activity change, negative = cytotoxicity: at 70.3 µM (top of the series) unless noted;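 also: cells stimulated with testosterone during compound exposure; nearly all actives have a fitted effect of over 55% in size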
# [5] = qHTS assay to identify small molecule antagonists of the estrogen receptor alpha (ER-alpha) signaling pathway using the BG1 cell line (AID 743080; calls by dose curve;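 also: BG1 cells stimulated with 17beta-estradiol alongside compound; nearly all actives have a fitted effect of over 25% in size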); conditions: BG1Luc4E2 ERE-luciferase antagonist mode, luminescence; activity change, negative = inhibition: at 70.3 µM (top of the series) unless noted
# Procedure, shortened: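 Endogenous full-length ER-alpha in BG1-Luc-4E2 cells drives a stably integrated 4×ERE luciferase gene; compounds were tested against 17beta-estradiol over 21.5 h, with luminescence and multiplexed viability fluorescence recorded.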
# [6] = biological target: Aryl hydrocarbon receptor (Homo sapiens) (UniProt P35869); assay: qHTS assay to identify small molecule that activate the aryl hydrocarbon receptor (AhR) signaling pathway (AID 743085); also: nearly all actives have a fitted effect of over 15% in size;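 as to activation: HG2L7.5c1 human HepG2 liver cells with stably integrated DRE-driven firefly reporter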
# UniProt P35869, sequence (P35869 whole entry, looked up): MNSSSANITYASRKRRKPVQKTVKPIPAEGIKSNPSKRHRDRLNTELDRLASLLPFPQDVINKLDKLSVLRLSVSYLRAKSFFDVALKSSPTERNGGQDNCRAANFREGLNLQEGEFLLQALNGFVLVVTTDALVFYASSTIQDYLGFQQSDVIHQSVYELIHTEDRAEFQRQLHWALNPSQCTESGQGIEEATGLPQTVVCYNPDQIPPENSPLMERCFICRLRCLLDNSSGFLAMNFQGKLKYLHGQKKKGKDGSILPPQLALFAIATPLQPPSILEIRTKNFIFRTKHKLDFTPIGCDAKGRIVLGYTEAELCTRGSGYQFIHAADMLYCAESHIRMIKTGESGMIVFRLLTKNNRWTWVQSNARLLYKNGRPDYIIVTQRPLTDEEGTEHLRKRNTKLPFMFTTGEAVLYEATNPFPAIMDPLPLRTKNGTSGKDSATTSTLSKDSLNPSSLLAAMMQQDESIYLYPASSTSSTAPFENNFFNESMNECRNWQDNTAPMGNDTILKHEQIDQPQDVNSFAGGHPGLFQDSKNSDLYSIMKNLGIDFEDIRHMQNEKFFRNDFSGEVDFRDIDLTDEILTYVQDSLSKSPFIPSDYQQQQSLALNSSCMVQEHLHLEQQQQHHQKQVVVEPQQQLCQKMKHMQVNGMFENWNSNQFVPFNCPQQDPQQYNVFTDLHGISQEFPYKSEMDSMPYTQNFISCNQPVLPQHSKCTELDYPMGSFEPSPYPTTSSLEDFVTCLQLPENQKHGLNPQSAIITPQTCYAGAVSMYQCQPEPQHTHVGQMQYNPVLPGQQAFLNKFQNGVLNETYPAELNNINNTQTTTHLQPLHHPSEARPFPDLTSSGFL
# Procedure, shortened: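 Compounds were tested in HepG2 hepatocellular carcinoma cells harbouring a stably integrated luciferase gene under control of 20 DREs. Increased reporter signal after 24 h treatment at 37C was taken as AhR activation.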
# [7] = qHTS assay to identify small molecule that activate the aryl hydrocarbon receptor (AhR) signaling pathway - cell viability counter screen (AID 743086); also: nearly all actives have a fitted effect of over 45% in size
# Procedure, shortened: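 HepG2-AhR-luc (HG2L7.5c1) cells, 4000/well, treated 24 h at 37 C with compound; viability measured as CellTiter-Fluor fluorescence after 30 min in the same wells as the luciferase read.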
# [8] = biological target: Estrogen receptor (Homo sapiens) (UniProt P03372); assay: qHTS assay to identify small molecule agonists of the estrogen receptor alpha (ER-alpha) signaling pathway using the BG1 cell line (AID 743079); conditions: BG1Luc4E2 cells, ERE-luciferase agonist, 22 h; activation: at 70.3 µM (top of the series) unless noted; also: nearly all actives have a fitted effect of over 20% in size
# [9] = biological target: Peroxisome proliferator-activated receptor gamma (Homo sapiens) (UniProt P37231); assay: qHTS assay to identify small molecule agonists of the peroxisome proliferator-activated receptor gamma (PPARg) signaling pathway (AID 743094; active = well fitted activation curve with a large enough effect in the signal ratio in the repeat runs, not every such curve was filed as active; inconclusive = weak or mixed curves, or effect the other way; inactive = no such curve, though single readings can be large or run the other way; the % refers to the signal ratio); conditions: HEK293H PPARg-UAS-bla, beta-lactamase FRET ratio, 17 h; activation: at 57 µM (top of the series) unless noted
# UniProt P37231, sequence (P37231 whole entry, looked up): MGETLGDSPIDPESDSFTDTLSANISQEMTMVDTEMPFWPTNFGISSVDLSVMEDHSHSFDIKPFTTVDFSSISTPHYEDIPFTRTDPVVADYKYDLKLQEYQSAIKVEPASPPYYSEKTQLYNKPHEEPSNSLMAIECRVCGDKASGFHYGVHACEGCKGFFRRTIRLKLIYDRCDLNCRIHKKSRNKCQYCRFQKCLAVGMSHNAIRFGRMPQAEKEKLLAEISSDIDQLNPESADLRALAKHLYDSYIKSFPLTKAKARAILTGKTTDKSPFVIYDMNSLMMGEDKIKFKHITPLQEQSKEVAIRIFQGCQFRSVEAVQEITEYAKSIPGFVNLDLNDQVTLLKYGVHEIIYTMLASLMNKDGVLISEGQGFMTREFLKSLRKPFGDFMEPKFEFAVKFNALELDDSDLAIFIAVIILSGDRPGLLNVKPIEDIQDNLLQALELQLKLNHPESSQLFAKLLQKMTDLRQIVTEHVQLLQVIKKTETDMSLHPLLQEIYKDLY
# Procedure, shortened: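 Reporter activation was scored by fluorescence of cleaved LiveBLAzer B/G substrate (1 h, room temperature) in PPARg-bla HEK293H cells previously treated 17 h at 37C with DMSO-dissolved compounds.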
# Aromatase (Homo sapiens) = Aromatase (Homo sapiens) (UniProt P11511); assay: qHTS assay to identify aromatase inhibitors (AID 743083); conditions: MCF-7 aro ERE, testosterone-driven ERE luciferase, 24 h; activity, negative = inhibition: at 70.3 µM (top of the series); also: nearly all actives have a fitted effect of over 55% in size
# UniProt P11511, sequence (P11511 whole entry, looked up): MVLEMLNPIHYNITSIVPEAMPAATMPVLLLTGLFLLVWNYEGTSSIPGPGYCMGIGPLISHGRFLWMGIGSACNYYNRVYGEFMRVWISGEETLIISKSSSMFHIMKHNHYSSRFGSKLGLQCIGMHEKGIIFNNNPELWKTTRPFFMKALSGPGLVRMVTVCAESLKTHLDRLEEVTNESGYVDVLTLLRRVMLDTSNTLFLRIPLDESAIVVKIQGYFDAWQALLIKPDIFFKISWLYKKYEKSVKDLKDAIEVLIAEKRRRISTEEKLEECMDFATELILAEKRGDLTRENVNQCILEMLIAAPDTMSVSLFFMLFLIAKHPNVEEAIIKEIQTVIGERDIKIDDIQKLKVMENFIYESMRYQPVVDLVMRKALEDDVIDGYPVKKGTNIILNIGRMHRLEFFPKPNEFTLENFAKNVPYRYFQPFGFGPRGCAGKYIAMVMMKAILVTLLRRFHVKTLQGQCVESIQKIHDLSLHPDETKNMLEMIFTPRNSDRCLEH
# % is scaled to controls: 0 for no effect and ±100 for the full control effect; potency is read from the fitted curve at half-maximal effect; tags tell the direction and shape of the fitted curve or compound fluorescence and quenching.
smiles,measurement,setting,value
CN(C)CCc1c[nH]c2cccc(OP(=O)(O)O)c12,Potency,[1],"inconclusive: 60.5 µM [rising, single point]"
same,Potency,[2],inactive
CCCCN=C=O,Potency,[1],"inconclusive: 54.3 µM [rising, single point]"
CCCC(C)(COC(N)=O)COC(=O)NC(C)C (centres undefined),Potency,[1],"inconclusive: 19.4 µM [cytotoxic, partial curve, poor fit]"
same,Potency,[3],"inconclusive: 68.4 µM [cytotoxic, single point]"
same,Potency,[4],inactive
CCC1(CC)C(=O)N=C(O)NC1=O,Potency,[1],inactive
same,Potency,[4],inactive
Clc1ccc(C2(Cn3cncn3)OCCO2)c(Cl)c1,Potency,[1],inactive
same,"activity change, negative = inhibition",[5],inconclusive: -8.08%
c1nc[nH]n1,Potency,[1],"inconclusive: 0.191 µM [rising, full curve, poor fit]"
same,Potency,[2],inconclusive: 0.48 µM
same,Potency,[6],"inconclusive: 42.4 µM [activator, partial curve]"
same,Potency,[7],inactive
CC1C(=O)C[C@]2(C(C)C)C[C@H]12 (some centres undefined),Potency,[1],"inconclusive: 3.36 µM [rising, full curve, poor fit]"
C1CCNCC1,Potency,[1],inactive
same,Potency,[2],inconclusive: 63.9 µM [activator]
same,activation,[8],inconclusive: 28.5% [phenotype inactive] [at 95 µM]
CCOCCOC(C)=O,Potency,[1],"inconclusive: 4.36 µM [rising, full curve, poor fit]"
same,Potency,[2],inactive
same,Potency,[3],"inconclusive: 27.3 µM [rising, partial curve, poor fit]"
same,Potency,[6],"inconclusive: 61.1 µM [activator, single point]"
same,activation,[9],inconclusive: -18%
C#CC(C)(C)NC(=O)c1cc(Cl)cc(Cl)c1,Potency,[1],"inconclusive: 19.7 µM [cytotoxic, partial curve, poor fit]"
same,Potency,[3],inactive
OCCOc1ccccc1,Potency,[1],"inconclusive: 0.0891 µM [cytotoxic, full curve, poor fit]"
same,Potency,[3],inactive
O=Cc1ccc2c(c1)OCO2,Potency,[1],inactive
N#CSCc1ccccc1,Potency,[2],inconclusive: 61.9 µM
O=NN1CCCCCCC1,Potency,[8],"inconclusive: 61.1 µM [activator, single point]"
same,activation,[8],inconclusive: 3.41% [phenotype inactive]
CC(=O)NC1CCSC1=O (centres undefined),Potency,[1],"inconclusive: 11.5 µM [rising, single point]"
same,Potency,[7],"inconclusive: 5.69 µM [rising, partial curve, poor fit]"
CN(C)N=O,Potency,[1],"inconclusive: 21.8 µM [cytotoxic, single point] and inactive"
same,Potency,[7],"inconclusive: 68.6 µM [rising, partial curve, poor fit]"
same,Potency,[9],inactive
ClCBr,Potency,[8],"inconclusive: 57.7 µM [activator, partial curve, poor fit]"
same,Potency,[4],inactive
Cn1cc[n+](C)c1 (tested in a mixture with another compound),Potency,[8],inactive
CCCCN(CCCCO)N=O,Potency,[8],inactive
O=[N+]([O-])c1cc(C(F)(F)F)cc([N+](=O)[O-])c1Cl,activation,[8],inconclusive: 10.7% [phenotype inactive] [at 95 µM]
same,Potency,[5],inactive
same,Potency,[3],inconclusive: 68.9 µM [cytotoxic]
same,Potency,[7],"inconclusive: 54.7 µM [falling, single point]"
same,Potency,[9],"inconclusive: 22 µM [activator, single point]"
c1coc(-c2nc3ccccc3[nH]2)c1,Potency,[2],"inconclusive: 61.7 µM [activator, partial curve, poor fit]"
same,Potency,[8],active: 30.6 µM
same,Potency,[5],"inconclusive: 8.63 µM [rising, partial curve]"
O=c1n(Cl)c(=O)n(Cl)c(=O)n1Cl,Potency,[8],inactive
CNC(C)Cc1ccccc1OC (centres undefined),Potency,[8],inactive
CCCCCCCCCCCCCN1CC(C)OC(C)C1 (centres undefined),Potency,[8],inactive
same,Potency,[5],inactive
same,Potency,[3],inactive
C=CC(=O)OCC(C)C,Potency,[2],inactive
N#CCCl,Potency,[2],inconclusive: 0.203 µM [cytotoxic]
same,Potency,[8],active: 28.4 µM
same,Potency,[7],inactive
Cc1cccc(N)c1C,Potency,[8],inactive
same,Potency,[6],active: 48.6 µM
same,Potency,[9],inactive
Cc1ccccc1CCl,Potency,[1],inactive
same,Potency,[9],inactive
C#C[C@]1(O)CC[C@H]2[C@@H]3CCC4=CC(=O)CCC4=C3C=C[C@@]21CC,Potency,[2],active: 0.213 µM [inconclusive]
same,Potency,[5],active: 23.7 µM
same,Potency,[9],"inconclusive: 30.1 µM [activator, single point]"
CNC(=O)Oc1cccc2c1OC(C)(C)O2,Potency,[8],inactive
same,Potency,[5],"inconclusive: 54.5 µM [rising, partial curve, poor fit]"
CC1(C)[C@H](C=C(Cl)Cl)[C@@H]1C(=O)O[C@@H](C#N)c1cccc(Oc2ccccc2)c1,activation,[8],inconclusive: 22.3% [activator]
same,activation,[9],inconclusive: 0.0521%
C[C@H]1C(=O)O[C@@H]2CCN3CC=C(COC(=O)[C@](C)(O)[C@]1(C)O)[C@H]23,Potency,[8],"inconclusive: 33.5 µM [activator, partial curve, poor fit] and inactive"
CC(C)(C1CCC(O)CC1)C1CCC(O)CC1 (centres undefined),Potency,[2],active: 49 µM [activator]
CC(C)(C)N(NC(=O)c1ccc(Cl)cc1)C(=O)c1ccccc1,activation,[8],inconclusive: 0.0417% [phenotype inactive]
same,Potency,[3],"inconclusive: 6.82 µM [cytotoxic, partial curve]"
same,Potency,[4],active: 7.65 µM
same,Potency,[7],active: 17.1 µM
O=C(CBr)c1ccccc1,Potency,[8],active: 54.8 µM
same,Potency,[9],inactive
CCOP(OCC)OCC,Potency,[1],"inconclusive: 25 µM [cytotoxic, partial curve, poor fit]"
same,Potency,[7],inactive
CCOC(=O)Nc1cccc(OC(=O)Nc2ccccc2)c1,Potency,[8],active: 27.3 µM
same,Potency,[5],"inconclusive: 4.86 µM [rising, full curve]"
O=[N+]([O-])O[C@H]1CO[C@H]2[C@@H]1OC[C@H]2O[N+](=O)[O-],activation,[8],inconclusive: 5.38% [phenotype inactive]
CCCN(CCC)N=O,Potency,[8],inactive
CCCCCCCCCCCCCl,Potency,[2],active: 54.2 µM [activator]
same,Potency,[6],inactive
O=[N+]([O-])c1ccc(CCl)cc1,"activity change, negative = inhibition",[5],inconclusive: 0.205%
CCN(Cc1ccc(Cl)nc1)/C(=C/[N+](=O)[O-])NC,Potency,[8],inactive
CC(C)NCC(O)c1ccccc1Cl (centres undefined),Potency,[8],inactive
same,Potency,[5],inactive
CC(=O)[C@H]1CC[C@H]2[C@@H]3CC[C@H]4C[C@](C)(O)CC[C@]4(C)[C@H]3CC[C@]12C,Potency,[8],inactive
same,Potency,[9],inactive
CCCCOC(=O)c1ccccc1C(=O)OCCCC,Potency,[2],inconclusive: 55 µM
same,Potency,[8],active: 77 µM
same,Potency,[7],inactive
CCOP(=S)(OCC)Oc1ccc(Cl)cc1Cl,Potency,[8],"inconclusive: 54.5 µM [activator, partial curve, poor fit]"
same,Potency,[4],inactive
same,Potency,[6],active: 19.3 µM
CCOC(=O)CP(=O)(OCC)OCC,Potency,[8],"inconclusive: 54.5 µM [activator, partial curve]"
CCOc1nc(F)cc2nc(S(=O)(=O)Nc3c(Cl)cccc3Cl)nn12,Potency,[8],inactive
same,Potency,[9],"inconclusive: 1.55 µM [activator, full curve]"
C=CCCl,Potency,[2],active: 57.6 µM [activator]
same,Potency,[8],active: 32.1 µM
O=CCCl,Potency,[1],inactive
same,Potency,[6],"inconclusive: 77 µM [activator, partial curve, poor fit]"
C=CCC1([C@H](C)CCC)C(=O)NC(=O)NC1=O,Potency,[5],inactive
same,Potency,[6],inactive
O=C1OC(c2ccc(O)c(S(=O)(=O)O)c2)(c2ccc(O)c(S(=O)(=O)O)c2)c2c(Br)c(Br)c(Br)c(Br)c21,"activity change, negative = cytotoxicity",[3],inconclusive: 15%
same,Potency,[7],inactive
O=[N+]([O-])c1ccc(Oc2ccc(Cl)cc2Cl)cc1,Potency,[3],"inconclusive: 61.1 µM [rising, partial curve, poor fit]"
same,Potency,Aromatase (Homo sapiens),inactive
CC(C)NC(C)C,Potency,[5],inactive
O=[N+]([O-])c1cc(Cl)c(Cl)c(Cl)c1,Potency,[4],"inconclusive: 68 µM [cytotoxic, single point]"
Nc1nc(N)nc(N)n1,Potency,[3],inactive
same,Potency,[9],inactive
ClCCOCCCl,Potency,[3],"inconclusive: 17.2 µM [rising, partial curve, poor fit]"
same,Potency,[9],inactive
[Cl-].[Cl-].[Sn+2],Potency,[3],"inconclusive: 67.8 µM [cytotoxic, partial curve, poor fit]"
CCC[N+]1(C)CCCC1,Potency,[3],"inconclusive: 67.8 µM [cytotoxic, single point]"
O=C(CCN1CC1)OCC(CO)(COC(=O)CCN1CC1)COC(=O)CCN1CC1,Potency,[4],"inconclusive: 61.1 µM [rising, partial curve, poor fit]"
CCCC[N+]1(C)CCCCC1,Potency,[3],inactive
ClCC1CO1 (centres undefined),Potency,[3],inactive
C[C@]12CC[C@H]3[C@@H](CCC4=CC(=O)CC[C@@]43C)[C@@H]1CC[C@@H]2O,Potency,[3],inactive
CC(O)CCO (centres undefined),Potency,[3],inactive
COC(=O)C(Cl)C(=O)OC,Potency,[5],"inconclusive: 29.8 µM [falling, partial curve]"
CC(=O)[O-].CC(=O)[O-].[Co+2],Potency,[3],inactive
N[C@@H](Cc1ccc(N(CCCl)CCCl)cc1)C(=O)O,Potency,[3],inconclusive: 29.8 µM [cytotoxic]
same,Potency,Aromatase (Homo sapiens),"inconclusive: 33.5 µM [inhibitor, single point] and inconclusive: 33 µM [inhibitor, partial curve, poor fit]"
same,Potency,[4],"inconclusive: 33.5 µM [cytotoxic, single point] and inconclusive: 26.2 µM [cytotoxic, partial curve, poor fit]"
same,Potency,[6],"inconclusive: 33.5 µM [activator, partial curve, poor fit]"
C1CCC2CCCCC2C1 (centres undefined),Potency,[5],inactive
same,Potency,[6],inactive
same,Potency,[7],inactive
C[C@]12CC[C@H]3[C@@H](CC[C@@]45O[C@@H]4C(O)=C(C#N)C[C@]35C)[C@@H]1CC[C@@H]2O,Potency,[3],inactive
same,Potency,[6],inactive
